The campaign covered roughly 310,000 compounds. About 2,200 (0.71%) showed an effect of 50% or more. The effect is printed as a negative number. The list shows a part of the results.
What follows are molecules tested against human ether-à-go-go-related gene (hERG) potassium channel (human, UniProt Q12809) (assay: primary screen, population patch clamp on CHO cells stably expressing hERG).
Sequence of human ether-à-go-go-related gene (hERG) potassium channel (Q12809 whole entry, looked up): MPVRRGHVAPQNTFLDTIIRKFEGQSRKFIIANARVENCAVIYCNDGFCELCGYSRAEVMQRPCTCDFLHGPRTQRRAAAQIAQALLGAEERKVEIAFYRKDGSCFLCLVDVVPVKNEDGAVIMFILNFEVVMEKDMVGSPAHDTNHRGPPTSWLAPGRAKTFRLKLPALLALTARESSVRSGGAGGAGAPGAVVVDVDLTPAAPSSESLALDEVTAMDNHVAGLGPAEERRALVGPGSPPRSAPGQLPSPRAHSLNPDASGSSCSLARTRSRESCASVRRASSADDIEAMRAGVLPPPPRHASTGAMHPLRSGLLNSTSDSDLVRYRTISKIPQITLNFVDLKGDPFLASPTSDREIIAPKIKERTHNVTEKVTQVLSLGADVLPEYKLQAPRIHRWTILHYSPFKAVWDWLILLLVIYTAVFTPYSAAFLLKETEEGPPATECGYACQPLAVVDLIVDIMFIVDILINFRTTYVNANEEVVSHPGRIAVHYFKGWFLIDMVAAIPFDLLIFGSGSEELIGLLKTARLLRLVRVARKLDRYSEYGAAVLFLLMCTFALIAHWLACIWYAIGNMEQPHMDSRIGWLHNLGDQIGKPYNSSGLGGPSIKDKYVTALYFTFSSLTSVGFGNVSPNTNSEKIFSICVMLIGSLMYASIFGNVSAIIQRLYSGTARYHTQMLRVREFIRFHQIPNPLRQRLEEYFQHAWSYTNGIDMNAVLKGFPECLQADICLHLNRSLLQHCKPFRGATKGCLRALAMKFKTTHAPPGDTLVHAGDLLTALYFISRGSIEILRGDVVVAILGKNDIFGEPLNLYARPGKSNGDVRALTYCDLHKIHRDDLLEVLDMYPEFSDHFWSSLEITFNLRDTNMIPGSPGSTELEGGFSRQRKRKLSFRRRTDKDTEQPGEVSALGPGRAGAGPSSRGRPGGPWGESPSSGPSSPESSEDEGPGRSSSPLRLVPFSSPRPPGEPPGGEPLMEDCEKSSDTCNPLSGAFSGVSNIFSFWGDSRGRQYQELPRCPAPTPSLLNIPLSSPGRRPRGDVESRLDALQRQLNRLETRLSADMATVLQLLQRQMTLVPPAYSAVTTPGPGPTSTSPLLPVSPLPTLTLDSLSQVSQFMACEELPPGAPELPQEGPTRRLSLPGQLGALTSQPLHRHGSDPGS

SMILES | hERG current change (%, negative = inhibition) at 1uM [%]
COc1ccc(OC)c2sc(NC(=O)c3cccc(N4C(=O)CCC4=O)c3)nc12 | 2.94
COc1ccc(N(CC(=O)NC2CCCCC2)C(=O)CCCC(=O)Nc2ccccn2)cc1 | -17.3
Cc1ccc(-c2cc(Cc3cccs3)c(=O)[nH]n2)cc1 | 10.1
Cc1cccc(NC(=S)NCc2ccc(F)cc2)c1 | 5.98
O=C(CSc1ccc(-c2ccc(F)cc2)nn1)N1CCCCC1 | -8.39
O=C1N=C2SCCN2/C1=C\c1ccc(Cl)cc1 | -5.66
COc1cccc(C2(c3cccc(OC)c3)CC2C(=O)Nc2ccc(F)cc2)c1 (stereo not drawn) | 1.06
COc1cc2c(cc1OC)CN(C(=O)COc1ccccc1C#N)CC2 | 15.1
C1CCCN(CCCCN2CCCCCC2)CC1.Cl | -1.27
CCC1CSC(Nc2ccc(C(=O)/C=C/c3cccc(C)c3)cc2)=N1 (stereo not drawn) | 14
O=C(c1cccs1)N1CCN(c2nc3ccc([N+](=O)[O-])cc3s2)CC1 | 15.6
COc1ccc(C(=O)CSc2nnc3ccccn23)cc1OC | 14.3
CCCCCCCCOc1ccc(C(=O)O)cc1 | 17.2
CC1(C)OC(=O)C2(Cc3ccccc3N3CCCCC32)C(=O)O1 (stereo not drawn) | 0.285
O=C1C(O)=C(O)C(=O)c2ccccc21 | 2.37
CCOC(=O)C1C(=O)N(C)C2(C)CC1c1ccccc1O2 (stereo not drawn) | 14.6
CCOc1ccccc1N1CC(C(=O)N2CCc3ccccc32)CC1=O (stereo not drawn) | 5.44
CCOC(=O)c1c(NC(=O)C2CC=CCC2C(=O)O)sc(C)c1CC (stereo not drawn) | 6.24
Nc1c(C(=O)c2ccccc2)oc2ccc([N+](=O)[O-])cc12 | 5.62
CCN(CC)Cc1cc(C(C)=O)ccc1OCC(C)C | -1.39
Cc1ccc(NC(=O)c2cc(CC(C)C)nc3ccccc23)cc1 | 13.6
O=C(NCCC1CCCCN1S(=O)(=O)c1ccc(F)cc1)C(=O)NCc1ccccn1 (stereo not drawn) | 3.48
CC(C)NC(=O)c1ccccc1NC(=O)CN(c1ccc2c(c1)OCO2)S(C)(=O)=O | 15.4

SMILES | hERG current change (%, negative = inhibition) at 1uM [%]
CN(C)C=O.O=C1CN(C(=O)CN2C(=O)NC3(CCCCC3)C2=O)c2ccccc2N1 | 30.2
Cc1ccccc1NC(=O)N1CCC(C(=O)c2ccc(F)cc2)CC1 | 17.6
O=C(Cn1ncc2c3ccccc3n(Cc3ccccc3F)c2c1=O)NC1CC1 | 12.4
Cc1noc(C)c1COc1ccc(C(=O)OCC(=O)N2CC(=O)Nc3ccccc32)cc1 | 9.32
CC(Sc1ncnc2sc(-c3ccccc3)cc12)C(=O)NCC1CCCO1 (stereo not drawn) | -4.48
COc1ccc(N2CCN(C(=O)COC(=O)c3c(-c4ccccc4)noc3C)CC2)cc1 | 7.6
COC(=O)c1sc2nc(CN3CCN(c4cccc(C(F)(F)F)c4)CC3)[nH]c(=O)c2c1C | 9.95
CCOc1ccc(OCCn2c(S(=O)(=O)O)nc3c(N)ncnc32)cc1 | 11.5
COc1ccc(NC(=O)c2ccc(N3CCOCC3)nc2)cc1 | 9.13
O=C(CN1C(=O)S/C(=C\C=C\c2ccccc2)C1=O)NC1CCS(=O)(=O)C1 (stereo not drawn) | 17.8
Cc1c(C(=O)NCC2CCCO2)oc2ccc(S(=O)(=O)N3CCCCC3)cc12 (stereo not drawn) | 1.11
CCOC(=O)c1c(/N=C/C2=C(O)CCCC2=O)sc2c1CCCC2 | 12.5
CCc1nc(C)cn1S(=O)(=O)c1cc([N+](=O)[O-])ccc1Cl | 15.8
CC1CCN(C(=S)c2ccc([N+](=O)[O-])cc2)CC1 | 1.08
CN(CC(=O)Nc1ccc(N2CCOCC2)cc1)C(=O)CCc1cc(C(C)(C)C)c(O)c(C(C)(C)C)c1 | -2.49
Cc1cc(C)cc(C(=O)O/N=C(\N)c2ccc(Br)cc2)c1 | 4.51
O=C(NC(=S)N1CCN(c2ccccc2)CC1)c1c(F)cccc1F | 21.9
O=C1CN(CC(=O)Nc2ccc(Cl)cc2)CCN1 | 5.39
O=C(C1CCCO1)N1CCN(C(=S)Nc2ccccc2C(F)(F)F)CC1 (stereo not drawn) | 4.24
CC(C)OCCCNc1ncnc2c1[nH]c1ccccc12 | 8.11
COc1ccc(CNC(=O)c2cccc(C)c2[N+](=O)[O-])cc1 | 14.6
O=C(CSc1nnc(-c2ccc(S(=O)(=O)N3CCCC3)cc2)o1)NCc1ccccc1 | 15.2

— PMC4336329 (PLoS ONE, 2015)
